Laboratory results: the supplement of paper PMC9446081
Hit rate of the full screen: of about 39,000 compounds, about 220 (0.56%) showed activity. The list shows a part of the results.
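Note: static incubation at 37 °C against the wild-type strain, values averaged over two biological replicates.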

The molecules below were run on Escherichia coli K-12 BW25113 (assay: relative growth (OD600 normalised to plate interquartile mean) (fraction); higher = less growth inhibition, active = 0.2 or less). Settings: 50 µM; LB; incubation time: overnight (16-24 h).
With C[C@H]1CCCCO[C@H](CN(C)C(=O)Nc2cccc3ccccc23)[C@@H](C)CN([C@@H](C)CO)C(=O)c2cc(NS(=O)(=O)c3ccccc3)ccc2O1 the relative growth was inactive: 1.02.
In the case of C[C@@H]1CN([C@H](C)CO)C(=O)c2cc(NC(=O)c3ccccc3)ccc2O[C@@H](C)CCCCO[C@@H]1CN(C)C(=O)Nc1cccc2ccccc12, the relative growth is reported as inactive: 1.05.
For Cc1noc(C)c1NC(=O)Nc1ccc2c(c1)C(=O)N([C@@H](C)CO)C[C@@H](C)[C@H](CN(C)S(=O)(=O)c1ccccc1)OCCCC[C@H](C)O2, the relative growth was inactive: 1.03.
With C[C@@H]1CN([C@@H](C)CO)S(=O)(=O)c2ccc(-c3ccncc3)cc2O[C@@H]1CN(C)Cc1ccc(Oc2ccccc2)cc1 the relative growth was inactive: 1.05.
In the case of C[C@H](CO)N1C[C@H](C)[C@H](CN(C)Cc2ccccn2)Oc2ncc(C#Cc3ccc(F)cc3)cc2C1=O, the relative growth is reported as inactive: 0.992.
C[C@@H]1CN([C@H](C)CO)C(=O)c2cc(NC(=O)Nc3cccc4ccccc34)ccc2O[C@@H](C)CCCCO[C@H]1CN(C)S(=O)(=O)c1ccccc1 was tested, and the relative growth was inactive: 1.03.
In the case of [O-][NH2+][O-], the relative growth is reported as inactive: 1.02.
In the case of C[C@H](CO)N1C[C@H](C)[C@H](CN(C)Cc2ccc(C(F)(F)F)cc2)Oc2ccc(NC(=O)C3CCCCC3)cc2C1=O, the relative growth is reported as inactive: 1.
For C[C@H]1CN([C@@H](C)CO)S(=O)(=O)c2ccc(C#Cc3ccncc3)cc2O[C@@H]1CN(C)C(=O)C1CCC1, the relative growth was inactive: 0.92.
With COCC(=O)N1CC(=O)N2[C@H](CO)[C@@H](c3ccc(C#Cc4cccnc4)cc3)[C@@H]2C1 the relative growth was inactive: 0.935.
With COc1ccc(NC(=O)Nc2ccc3c(c2)C(=O)N([C@@H](C)CO)C[C@@H](C)[C@@H](CN(C)S(=O)(=O)c2ccc(OC)cc2)OCCCC[C@@H](C)O3)cc1 the relative growth was inactive: 1.05.
With CN(C)CC(=O)N1[C@@H]2c3ccc(-c4ccccc4)c(=O)n3C[C@H]1[C@H](CO)[C@H]2C(=O)N1CCOCC1 the relative growth was inactive: 0.986.
In the case of Cc1noc(C)c1S(=O)(=O)Nc1ccc2c(c1)CC(=O)N([C@@H](C)CO)C[C@@H](C)[C@H](CN(C)Cc1ccc(Oc3ccccc3)cc1)O2, the relative growth is reported as inactive: 0.996.
In the case of CC1=C(C(=O)O)N2C(=O)C(NC(=O)C(N)c3ccc(O)cc3)C2SC1 (centres undefined), the relative growth is reported as inactive: 0.986.
With C[C@H](N)C(=O)NCC(=O)N[C@H]1CSSC[C@@H](C(=O)O)NC(=O)[C@H](CO)NC(=O)[C@H]([C@@H](C)O)NC(=O)[C@H](Cc2ccccc2)NC(=O)[C@H]([C@@H](C)O)NC(=O)[C@H](CCCCN)NC(=O)[C@H](Cc2c[nH]c3ccccc23)NC(=O)[C@H](Cc2ccccc2)NC(=O)[C@H](Cc2ccccc2)NC(=O)[C@H](CC(N)=O)NC(=O)[C@H](CCCCN)NC1=O the relative growth was inactive: 0.962.
In the case of CCS(=O)(=O)Nc1ccc2c(c1)C(=O)N(C)[C@H]1CC[C@H](CC(=O)N[C@H]3CCN(Cc4ccccc4)C3)O[C@H]1CO2, the relative growth is reported as inactive: 1.01.
For COc1ccc(NC(=O)Nc2ccc3c(c2)C(=O)N([C@H](C)CO)C[C@H](C)[C@H](CN(C)Cc2ccccc2)OCCCC[C@H](C)O3)cc1, the relative growth was inactive: 0.966.
With CC(C)(C)[S@@](=O)N1Cc2cc(C(=O)NCCc3ccncc3)nc(-c3cccc(-c4cccc(C#N)c4)c3)c2[C@H]1CCO the relative growth was inactive: 1.01.
In the case of CCNC(=O)[C@@H]1CCCN1C(=O)[C@H](CCCN=C(N)N)NC(=O)[C@H](CC(C)C)NC(=O)[C@@H](COC(C)(C)C)NC(=O)[C@H](Cc1ccc(O)cc1)NC(=O)[C@H](CO)NC(=O)[C@H](Cc1c[nH]c2ccccc12)NC(=O)[C@H](Cc1c[nH]cn1)NC(=O)[C@@H]1CCC(=O)N1, the relative growth is reported as inactive: 0.95.
CC1CCC2(C)C(C=O)=CCCC2C1(C)CC1OC(O)C(=O)C12CO2 (centres undefined) was tested, and the relative growth was active: 0.0462.
CC(=O)n1cc([C@H]2C=C(C(=O)N3CCN(Cc4ccccc4)CC3)O[C@@H](OCc3ccc(CO)cc3)C2)c2ccccc21 was tested, and the relative growth was inactive: 1.
With C[C@@H]1CN([C@H](C)CO)S(=O)(=O)c2ccc(C3=CCCCC3)cc2O[C@H]1CN(C)S(=O)(=O)c1cn(C)cn1 the relative growth was inactive: 0.995.
With C[C@H](CO)N1C[C@H](C)[C@H](CN(C)Cc2ccc(C(=O)Nc3ccccc3N)cc2)Oc2ccc(NC(=O)CCN3CCOCC3)cc2CC1=O the relative growth was inactive: 0.917.
In the case of Cc1cn([C@@H]2C[C@@H](O)[C@H](CO)O2)c(=O)[nH]c1=O, the relative growth is reported as inactive: 0.991.
C[C@H]1CN([C@@H](C)CO)C(=O)c2cc(NC(=O)Cn3cnnn3)ccc2O[C@@H]1CN(C)C(=O)Nc1ccccc1 was tested, and the relative growth was inactive: 1.01.
In the case of CC[C@H](C(=O)N1CCCC[C@H]1C(=O)O[C@H](CCc1ccc(OC)c(OC)c1)c1cccc(OCC(=O)NCCNC(=O)COc2cccc([C@@H](CCc3ccc(OC)c(OC)c3)OC(=O)[C@@H]3CCCCN3C(=O)[C@@H](CC)c3cc(OC)c(OC)c(OC)c3)c2)c1)c1cc(OC)c(OC)c(OC)c1, the relative growth is reported as inactive: 1.
In the case of Cc1ccc(-c2csc(-c3ccc(C(F)(F)F)cc3)n2)cc1, the relative growth is reported as inactive: 0.984.
C[C@@H]1CN([C@H](C)CO)C(=O)c2cccc(NS(C)(=O)=O)c2O[C@@H]1CN(C)S(C)(=O)=O was tested, and the relative growth was inactive: 0.996.
In the case of Cn1c(=O)n2n(c1=O)[C@H](C1CC1)C=C1CN3[C@@H]([C@H](Cc4ccccc4)OC(=O)[C@@H]3COC(=O)NCCCCCC(=O)NO)[C@@H]12, the relative growth is reported as inactive: 0.988.
For C[C@@H]1CN([C@@H](C)CO)C(=O)c2cc(NC(=O)CCCN(C)C)ccc2O[C@@H]1CN(C)S(=O)(=O)c1ccc(Cl)cc1, the relative growth was inactive: 1.
For C[C@H](CO)N1C[C@H](C)[C@H](CN(C)C(=O)Nc2ccc(C(F)(F)F)cc2)Oc2ccc(NC(=O)Nc3cccc4ccccc34)cc2CC1=O, the relative growth was inactive: 0.985.
C[C@@H]1CCCCO[C@H](CN(C)S(=O)(=O)c2ccc(Cl)cc2)[C@@H](C)CN([C@@H](C)CO)C(=O)c2cc(NC(=O)C3CCCCC3)ccc2O1 was tested, and the relative growth was inactive: 1.02.
CCOC(=O)CC1(N)CCCCC1 was tested, and the relative growth was inactive: 0.984.
With CC(C)NC(=O)N(C)C[C@@H]1Oc2ccc(NC(=O)c3ccncc3)cc2CC(=O)N([C@H](C)CO)C[C@H]1C the relative growth was inactive: 0.979.
